# This is one part of the list.
# Test system: HSkMC (human skeletal muscle cells)
# Test: cytotoxicity call (relative viability < 0.9)
# Settings: 10 µM
row,SMILES,cytotoxicity call
1,N#CCc1ccc(Cl)cc1F,inactive
2,C[C@@H]1CN([C@@H](C)CO)C(=O)c2cc(NC(=O)NC3CCCCC3)ccc2O[C@@H]1CN(C)S(C)(=O)=O,inactive
3,Cc1ccc(S(=O)(=O)NCC[C@@H]2CC[C@H](NS(=O)(=O)c3ccccc3Cl)[C@H](CO)O2)cc1,inactive
4,C[C@H](CO)N1C[C@H](C)[C@H](CN(C)S(=O)(=O)c2ccccc2)Oc2ncc(-c3ccncc3)cc2C1=O,inactive
5,OCCNC(=S)NC1CCCC1,inactive
6,COc1ccc(CN(C)C[C@H]2OCCCC[C@@H](C)Oc3ccc(NC(=O)Nc4c(C)noc4C)cc3C(=O)N([C@H](C)CO)C[C@H]2C)cc1,inactive
7,C[C@@H]1CN([C@@H](C)CO)C(=O)c2cccc(NC(=O)CCCCCC(=O)Nc3ccccc3N)c2O[C@H]1CN(C)S(C)(=O)=O,inactive
8,CC(C)(C)[S@](=O)N1Cc2cc(C(=O)NCCc3ccncc3)nc(-c3cccc(-c4ccccc4)c3)c2[C@@H]1CCO,inactive
9,C[C@@H]1CN([C@H](C)CO)C(=O)c2cc(/C=C/c3ccccc3)cnc2O[C@H]1CN(C)S(=O)(=O)c1cn(C)cn1,inactive
10,C[C@@H]1CCCCO[C@@H](CN(C)C(=O)Nc2cccc3ccccc23)[C@@H](C)CN([C@@H](C)CO)C(=O)c2cc(NC(=O)Nc3cccc4ccccc34)ccc2O1,inactive
11,O=S1(=O)[C@@H]2C[C@H]3C=C[C@]2(CN1C1CC1)O3,inactive
12,Cc1noc(C)c1NC(=O)Nc1ccc2c(c1)CC(=O)N([C@@H](C)CO)C[C@@H](C)[C@H](CN(C)Cc1ccc(C(=O)Nc3ccccc3N)cc1)O2,inactive
13,OC[C@H]1O[C@H](n2cnc3cncnc32)[C@@H](O)[C@@H]1O,active
14,Cc1ccc(S(=O)(=O)N(C)C[C@H]2Oc3ccc(NC(=O)c4ccncc4)cc3C(=O)N([C@@H](C)CO)C[C@@H]2C)cc1,inactive
15,C[C@@H]1CN([C@@H](C)CO)C(=O)c2cc(NC(=O)Nc3cccc4ccccc34)ccc2O[C@@H]1CN(C)S(=O)(=O)c1ccc(Cl)cc1,inactive
16,C[C@@H]1CN([C@H](C)CO)C(=O)c2cc(NC(=O)Nc3ccc(C(F)(F)F)cc3)ccc2O[C@@H]1CN(C)S(=O)(=O)c1ccc(Cl)cc1,active
17,C[C@@H]1CN([C@H](C)CO)C(=O)c2cc(NC(=O)CCCN(C)C)ccc2O[C@@H]1CN(C)Cc1ccc2c(c1)OCO2,inactive
18,C[C@H]1CCCCO[C@@H](CN(C)C(=O)Nc2ccc(C(F)(F)F)cc2)[C@@H](C)CN([C@@H](C)CO)C(=O)c2cc(NC(=O)c3ccncc3)ccc2O1,inactive
19,C#CCN(C)C1CCN(C(C)=O)CC1,inactive
20,Cl.O=C(Nc1ccccc1)OCC(CN1CCCCC1)OC(=O)Nc1ccccc1 (stereo not given),inactive

row,SMILES,cytotoxicity call
1,O=S1(=O)C[C@H](NCCO)[C@@H](O)C1,inactive
2,Cc1ccc(S(=O)(=O)Nc2ccc3c(c2)C(=O)N([C@@H](C)CO)C[C@@H](C)[C@@H](CN(C)S(=O)(=O)c2ccc(F)cc2)O3)cc1,inactive
3,COc1ccc(CN(C)C[C@H]2Oc3ccc(NS(=O)(=O)c4cn(C)cn4)cc3C(=O)N([C@@H](C)CO)C[C@H]2C)cc1,inactive
4,COCC#Cc1cnc2c(c1)C(=O)N([C@@H](C)CO)C[C@H](C)[C@H](CN(C)C(=O)c1ccc3c(c1)OCO3)O2,inactive
5,Cc1ccc(S(=O)(=O)N2C[C@H](O)COC[C@H]3O[C@H](CC(=O)N[C@H]4CCN(Cc5ccccc5)C4)CC[C@@H]32)cc1,inactive
6,Cc1ccc(S(=O)(=O)Nc2ccc3c(c2)CC(=O)N([C@@H](C)CO)C[C@@H](C)[C@H](CN(C)Cc2ccc(Oc4ccccc4)cc2)O3)cc1,inactive
7,C[C@@H]1CN([C@H](C)CO)C(=O)c2cccc(NC(=O)C3CC3)c2O[C@@H]1CN(C)Cc1ccc(-c2ccccc2)cc1,inactive
8,C[C@@H]1CN([C@H](C)CO)S(=O)(=O)c2ccc(-c3ccc(F)cc3)cc2O[C@H]1CN(C)C(=O)C1CCOCC1,inactive
9,Cn1cnc(S(=O)(=O)N2C[C@@H](O)COC[C@H]3O[C@H](CC(=O)NCc4cc(F)cc(F)c4)CC[C@@H]32)c1,inactive
10,C[C@@H]1CN([C@H](C)CO)C(=O)c2cccc(NC(=O)c3ccc(-c4nccs4)cc3)c2O[C@H]1CN(C)Cc1ccc(Cl)c(Cl)c1,inactive
11,[N-]=[N+]=Nc1ccccc1[C@@H]1OC(c2ccc(OCCCO)cc2)=N[C@]1(Cc1ccccc1)C(=O)N1CCCCC1,inactive
12,C[C@H]1CN([C@@H](C)CO)C(=O)c2cccc(NC(=O)c3ccc(-c4nccs4)cc3)c2O[C@@H]1CN(C)CC1CCCCC1,inactive
13,COc1cccc(C(=O)Nc2ccc3c(c2)C(=O)N(C)[C@@H]2CC[C@@H](CC(=O)NCC4CC4)O[C@H]2CO3)c1,inactive
14,O=C(C[C@H]1CC[C@H]2[C@@H](COC[C@@H](O)CN2S(=O)(=O)c2ccc(F)cc2)O1)NCc1ccncn1,inactive
15,COC(=O)c1cnn2c(=O)cc(C)[nH]c12,inactive
16,Cc1cc(C(=O)Nc2cccc3c2O[C@@H](CN(C)Cc2ccncc2)[C@H](C)CN([C@@H](C)CO)C3=O)n(C)n1,inactive
17,COc1ccc(S(=O)(=O)N(C)C[C@@H]2Oc3ccc(NC(=O)NC(C)C)cc3CC(=O)N([C@H](C)CO)C[C@@H]2C)cc1,inactive
18,C[C@@H]1CN([C@@H](C)CO)S(=O)(=O)c2ccc(-c3cccnc3)cc2O[C@@H]1CN(C)C(=O)NC1CCCCC1,inactive
19,Cc1noc(C)c1S(=O)(=O)Nc1ccc2c(c1)CC(=O)N([C@H](C)CO)C[C@@H](C)[C@H](CN(C)Cc1ccccc1)O2,inactive
20,COCC#Cc1ccc2c(c1)O[C@@H](CN(C)Cc1ccccc1F)[C@@H](C)CN([C@H](C)CO)S2(=O)=O,inactive

# — the antibiotic and cytotoxicity screens of Wong et al. (2023)
